Measurements taken from PMC3050860.
These are yes or no findings as the source states them, for the method shown. For some of these results: Binding seen in cells or lysates may run through a third protein. Some binding calls cover weakened binding; strength is not graded here.

Protein sequences, listed by entry. Tags and fused reporters are not part of them. Lines headed by an entry give the natural chain unless they say otherwise; changes in a name come on top. Chains listed by the source or under a name are the forms on record and can include a tag or linker. Residues count along the entry.
UniProt P10242: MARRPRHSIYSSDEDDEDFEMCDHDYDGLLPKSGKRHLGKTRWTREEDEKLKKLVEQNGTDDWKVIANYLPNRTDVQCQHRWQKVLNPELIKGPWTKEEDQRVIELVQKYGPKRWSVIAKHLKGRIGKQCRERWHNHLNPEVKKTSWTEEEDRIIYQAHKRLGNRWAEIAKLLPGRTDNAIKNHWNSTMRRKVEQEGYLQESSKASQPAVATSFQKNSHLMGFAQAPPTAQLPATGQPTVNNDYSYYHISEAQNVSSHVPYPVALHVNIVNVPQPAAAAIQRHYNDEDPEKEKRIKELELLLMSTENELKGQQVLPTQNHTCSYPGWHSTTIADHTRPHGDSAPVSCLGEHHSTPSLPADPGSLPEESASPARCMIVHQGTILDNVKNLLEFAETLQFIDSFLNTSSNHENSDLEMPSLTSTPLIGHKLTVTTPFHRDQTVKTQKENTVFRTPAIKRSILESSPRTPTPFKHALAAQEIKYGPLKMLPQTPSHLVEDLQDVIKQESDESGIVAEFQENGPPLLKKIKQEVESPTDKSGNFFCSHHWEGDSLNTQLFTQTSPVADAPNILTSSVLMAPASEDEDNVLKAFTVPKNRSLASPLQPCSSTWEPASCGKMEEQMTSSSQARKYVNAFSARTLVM
Gal4p-DBD-c-Myb[233-640]-HA (pCIneoB-GBD2-hcM[233-640]-HA), c-Myb lacking its own DBD in fusion with Gal4p-DBD: residues 233-640 of P10242
UniProt Q9UKL3: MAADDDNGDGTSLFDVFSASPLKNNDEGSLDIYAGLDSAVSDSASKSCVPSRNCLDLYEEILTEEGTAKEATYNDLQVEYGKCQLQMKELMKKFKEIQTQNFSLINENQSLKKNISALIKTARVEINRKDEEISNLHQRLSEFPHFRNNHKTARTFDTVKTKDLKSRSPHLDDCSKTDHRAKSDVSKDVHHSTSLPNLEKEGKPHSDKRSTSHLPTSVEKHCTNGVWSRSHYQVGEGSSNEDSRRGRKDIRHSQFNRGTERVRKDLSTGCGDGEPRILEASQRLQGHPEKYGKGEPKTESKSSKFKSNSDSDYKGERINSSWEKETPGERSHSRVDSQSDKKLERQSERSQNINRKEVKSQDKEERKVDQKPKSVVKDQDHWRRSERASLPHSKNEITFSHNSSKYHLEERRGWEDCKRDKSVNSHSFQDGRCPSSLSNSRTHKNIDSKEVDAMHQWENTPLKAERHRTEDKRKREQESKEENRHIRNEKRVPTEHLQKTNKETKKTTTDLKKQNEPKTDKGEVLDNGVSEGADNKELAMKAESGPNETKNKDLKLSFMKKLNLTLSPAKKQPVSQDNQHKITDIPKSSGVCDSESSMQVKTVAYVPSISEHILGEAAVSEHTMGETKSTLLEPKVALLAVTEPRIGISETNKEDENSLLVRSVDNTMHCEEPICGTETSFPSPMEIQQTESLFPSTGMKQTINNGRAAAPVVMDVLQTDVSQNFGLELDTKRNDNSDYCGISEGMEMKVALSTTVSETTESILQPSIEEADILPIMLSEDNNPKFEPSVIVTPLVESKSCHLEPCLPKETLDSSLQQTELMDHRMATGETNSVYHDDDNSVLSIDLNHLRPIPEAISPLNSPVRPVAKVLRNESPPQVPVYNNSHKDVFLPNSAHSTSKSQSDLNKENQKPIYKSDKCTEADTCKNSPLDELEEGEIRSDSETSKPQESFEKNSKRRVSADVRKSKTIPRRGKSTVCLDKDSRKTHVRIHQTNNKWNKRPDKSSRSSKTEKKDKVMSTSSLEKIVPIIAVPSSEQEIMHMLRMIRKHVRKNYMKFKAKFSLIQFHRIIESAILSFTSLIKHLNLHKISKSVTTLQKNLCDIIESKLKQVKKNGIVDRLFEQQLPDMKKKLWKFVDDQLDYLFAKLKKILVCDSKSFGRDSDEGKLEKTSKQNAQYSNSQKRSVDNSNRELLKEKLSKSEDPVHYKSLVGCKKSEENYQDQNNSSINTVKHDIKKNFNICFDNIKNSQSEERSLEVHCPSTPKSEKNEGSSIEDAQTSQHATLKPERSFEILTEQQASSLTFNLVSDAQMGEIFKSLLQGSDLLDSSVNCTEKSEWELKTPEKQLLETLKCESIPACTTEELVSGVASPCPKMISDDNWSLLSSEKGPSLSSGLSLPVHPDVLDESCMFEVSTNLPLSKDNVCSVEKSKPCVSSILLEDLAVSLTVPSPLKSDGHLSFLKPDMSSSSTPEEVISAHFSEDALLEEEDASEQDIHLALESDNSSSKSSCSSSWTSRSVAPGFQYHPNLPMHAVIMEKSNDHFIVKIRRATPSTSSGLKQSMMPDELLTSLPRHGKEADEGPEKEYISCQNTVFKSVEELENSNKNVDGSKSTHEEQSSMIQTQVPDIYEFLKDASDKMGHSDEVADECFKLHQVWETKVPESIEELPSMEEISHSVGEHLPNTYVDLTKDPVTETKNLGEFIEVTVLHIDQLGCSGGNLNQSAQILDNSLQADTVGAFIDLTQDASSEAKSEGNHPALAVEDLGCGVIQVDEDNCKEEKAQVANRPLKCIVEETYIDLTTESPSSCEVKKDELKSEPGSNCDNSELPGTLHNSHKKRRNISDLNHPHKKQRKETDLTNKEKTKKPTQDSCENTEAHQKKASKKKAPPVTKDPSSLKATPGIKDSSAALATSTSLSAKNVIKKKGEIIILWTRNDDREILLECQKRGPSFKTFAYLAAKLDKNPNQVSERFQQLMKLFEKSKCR
Gal4p-DBD-FLASH-A (pDBT-FLASH-A), amino acids 1-304 of FLASH: residues 1-304 of Q9UKL3
Gal4p-DBD-FLASH-D (pDBT-FLASH-D), amino acids 1508-1982 of human FLASH: residues 1508-1982 of Q9UKL3
GST-FLASH-D-KR (pGEX-6p-2-FLASH-D-KR), amino acid residues 1508-1982 with K1813R (Q9UKL3, form named): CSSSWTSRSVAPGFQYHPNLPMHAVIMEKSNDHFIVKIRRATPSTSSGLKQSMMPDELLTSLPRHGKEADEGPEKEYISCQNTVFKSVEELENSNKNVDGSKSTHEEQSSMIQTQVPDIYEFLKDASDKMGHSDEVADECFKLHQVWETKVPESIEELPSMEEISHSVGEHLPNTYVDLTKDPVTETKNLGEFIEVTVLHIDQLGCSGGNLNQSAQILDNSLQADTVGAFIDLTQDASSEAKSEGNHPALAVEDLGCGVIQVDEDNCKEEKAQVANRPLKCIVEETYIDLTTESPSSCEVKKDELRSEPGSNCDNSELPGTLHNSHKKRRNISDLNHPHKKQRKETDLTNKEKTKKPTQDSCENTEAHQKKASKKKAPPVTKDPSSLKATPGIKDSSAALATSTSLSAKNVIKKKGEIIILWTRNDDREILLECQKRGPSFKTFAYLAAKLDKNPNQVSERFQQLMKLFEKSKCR
UniProt O75925: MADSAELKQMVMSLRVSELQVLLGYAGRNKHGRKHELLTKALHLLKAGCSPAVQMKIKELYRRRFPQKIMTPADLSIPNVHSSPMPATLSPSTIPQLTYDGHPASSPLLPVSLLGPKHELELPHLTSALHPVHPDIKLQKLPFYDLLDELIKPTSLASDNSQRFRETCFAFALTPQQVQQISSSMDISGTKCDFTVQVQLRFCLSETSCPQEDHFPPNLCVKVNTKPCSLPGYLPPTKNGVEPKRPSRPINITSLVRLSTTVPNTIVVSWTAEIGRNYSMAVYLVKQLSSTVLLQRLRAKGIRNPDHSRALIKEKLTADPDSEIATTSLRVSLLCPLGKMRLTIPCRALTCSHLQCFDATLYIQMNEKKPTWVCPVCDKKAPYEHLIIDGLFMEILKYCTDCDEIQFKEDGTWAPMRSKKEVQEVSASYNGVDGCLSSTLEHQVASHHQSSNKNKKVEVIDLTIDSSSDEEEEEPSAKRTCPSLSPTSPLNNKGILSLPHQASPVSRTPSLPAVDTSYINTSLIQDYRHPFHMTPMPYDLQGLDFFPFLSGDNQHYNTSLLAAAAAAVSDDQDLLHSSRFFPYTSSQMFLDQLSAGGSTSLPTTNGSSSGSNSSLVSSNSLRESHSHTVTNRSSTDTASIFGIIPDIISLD

Columns and labels:
[1] = molecular target: Gal4p-DBD-c-Myb, full-length human c-Myb (pDBT-c-Myb) (human) (UniProt P10242); assay: two-hybrid; directed mating: bait (pDBT) in AH109, prey (pGADT7) in Y187; activation of the HIS3 reporter (SC-L-W-H); each mating in duplicate
[2] = molecular target: Gal4p-DBD-FLASH-D (pDBT-FLASH-D), amino acids 1508-1982 of human FLASH (human) (UniProt Q9UKL3); assay: as above
[3] = molecular target: Gal4p-DBD-FLASH-D (pDBT-FLASH-D), amino acids 1508-1982 of human FLASH (human) (UniProt Q9UKL3); assay: two-hybrid; library screening: pDBT-FLASH-D as bait against a human bone marrow cDNA library (Clontech); positive clones validated by HIS3, ADE2 and LacZ reporters
[4] = molecular target: GST-FLASH-D (pGEX-6p-2-FLASH-D), amino acid residues 1508-1982 (human) (UniProt Q9UKL3); assay: pull-down; GST fusion proteins from E. coli incubated with lysate of transfected COS-1 cells; PIAS1 detected by anti-FLAG immunoblot; only the target purified
[5] = molecular target: GST-FLASH-D-KR (pGEX-6p-2-FLASH-D-KR), amino acid residues 1508-1982 with K1813R (human) (UniProt Q9UKL3); assay: as above
[6] = molecular target: Gal4p-DBD-FLASH, full-length wild-type FLASH fused to the Gal4p DNA-binding domain (pCIneo-GBD1-FLASH) (not stated (human or mouse cDNA cloned)) (UniProt Q9UKL3); assay: chromatin immunoprecipitation (ChIP-qPCR); HEK 293 reporter cell line with integrated Gal4p-responsive 5×GRE promoter; formaldehyde cross-linked; occupancy of 3×FLAG-PIAS1 on the promoter with or without the Gal4p-DBD fusion partner; NCOA5 intron as control
[7] = molecular target: Gal4p-DBD-c-Myb[233-640]-HA (pCIneoB-GBD2-hcM[233-640]-HA), c-Myb lacking its own DBD in fusion with Gal4p-DBD (human) (UniProt P10242); assay: as above
[8] = molecular target: GST-FLASH-A (pGEX-6p-2-FLASH-A), amino acid residues 1-304 (human) (UniProt Q9UKL3); assay: pull-down; GST fusion proteins from E. coli incubated with lysate of transfected COS-1 cells; PIAS1 detected by anti-FLAG immunoblot; only the target purified
[9] = molecular target: Gal4p-DBD-FLASH-A (pDBT-FLASH-A), amino acids 1-304 of FLASH (human) (UniProt Q9UKL3); assay: two-hybrid; directed mating: bait (pDBT) in AH109, prey (pGADT7) in Y187; activation of the HIS3 reporter (SC-L-W-H); each mating in duplicate

Row | binding [1] | binding [2] | binding [3] | binding [4] | binding [5] | binding [6] | binding [7] | binding [8] | binding [9] | Substance
1 | no binding | binds | binds |  |  |  |  |  |  | Gal4p-AD-PIAS1[1-501] (pGADT7-PIAS1[1-501]) (from UniProt O75925 1-501) (domain or fragment)
2 |  |  |  | binds | binds |  |  |  |  | 3×FLAG-PIAS1 RING finger mutant (C346S/C351S/H353A/C356S) (pCIneoB-3×FLAG-PIAS1 RING finger mutant) (from UniProt O75925 1-651)
3 |  |  |  | binds | binds | binds | binds | binds |  | 3×FLAG-PIAS1, full-length human PIAS1 wild-type (pCIneoB-3×FLAG-PIAS1) (from UniProt O75925 1-651)
4 | binds | binds |  |  |  |  |  |  | binds | Gal4p-AD-PIAS1 full length (pGADT7-PIAS1) (from UniProt O75925 1-651)
